Test results taken from publication PMC12136788.
The other results are listed elsewhere or left out.

T1: UNK ZnF1-3 (human, UniProt Q9C0B0 31-174)
T1 sequence: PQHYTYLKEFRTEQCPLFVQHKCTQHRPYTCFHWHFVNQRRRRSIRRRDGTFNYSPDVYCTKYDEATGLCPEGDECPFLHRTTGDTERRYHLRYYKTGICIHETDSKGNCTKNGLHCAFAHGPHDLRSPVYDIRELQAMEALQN

B1: chr3:41417089:41417090:+_ENSMUSG00000025764_ENSMUST00000026865|mus_hu|FALSE|FALSE (ssRNA)
RNA: GGGAGUUCUACAGUCCGACGAUCAACCAAGGAAGUACCCAUUUGUUUUCUGAAGAAUGCAGAAUGCCACUUCAAGUCCUCUAUCUUGGGAGCAUCAGGGCCAACAGAAGGACUGUUAAACAAAAGCAUGUUUUCCAGUGAGGACAACAGAGGAUUGAGCAUCA
B2: chr19:15981513:15981514:-_ENSMUSG00000024640_ENSMUST00000025542|mus_mus|motif|central (ssRNA)
RNA: GGGAGUUCUACAGUCCGACGAUCCAAAGCUUCGUCUCCUUUGGCGUUGCCAAUGCGAAAUGGGAUGUUCAUCCUGCUUCGGUUCUGGCGCUCCACUGGGCAUACAUAAAAUCCUUGAGAAUUAUCAAUGAUCUCAUAAAUCAUCAACAGAGGAUUGAGCAUCA
B3: chr4:139038490:139038491:+_ENSMUSG00000066036_ENSMUST00000145659|mus_hu|FALSE|FALSE (ssRNA)
RNA: GGGAGUUCUACAGUCCGACGAUCCCUCCGCAAGAUUUCCACACGUGUGGCUCUCCACUGCUCAGGGGGCAGGAUGUGAAGGGCCAAGACUGUGAAAUAGUAGGGCCCGUCCACUUCAAAGGCACUCUCCACCCACUUCUCCUUCAACAGAGGAUUGAGCAUCA
B4: chr14:89307221:89307222:+_ENSG00000165533_ENST00000346301|hu_mus|hu_hu_hu_mus_False|88_98 (ssRNA)
RNA: GGGAGUUCUACAGUCCGACGAUCUCCUGUUUGGUUAGUUCCAGGGAGUUUCAAAGAUGUGCCAGGGCGUGGGACCUGAGCAAUAGCAUUUUCAUCCAGGAUCAUUUCAGCAAUUCCUUCCUGGUCCACAUCAAUUUCAUCUAUCAACAGAGGAUUGAGCAUCA
B5: chr2:73746717:73746718:-_ENSMUSG00000018770_ENSMUST00000018914|mus_mus|FALSE|FALSE (ssRNA)
RNA: GGGAGUUCUACAGUCCGACGAUCCAAGAUCAAGAACGCAACCAUCAAACAAAAGAGACCCAUAGCUUCAGACAAGGCAAAUCCCAGGAUAGCAUAUGAGAACAGCUGCUGCUUCAGUGAAGGGUUUCUGGCAUAACCAAUGAUCAACAGAGGAUUGAGCAUCA
B6: 90438853_90440559_5201_CDS_ENSG00000112159_ENST00000369393|human|control|control (ssRNA)
RNA: GGGAGUUCUACAGUCCGACGAUCAGGUCCCCUUGGUAUAAAAAAUGGAUGAAUUCCCCAAAGGUUAUCUAUUCCAGUGAAUUCUUUGGCCUUCAUUCUGUCAUAAAUCUUCAACUCAUUUUUCUGAUAUUCUGUAAGUCGUACCAACAGAGGAUUGAGCAUCA
B7: chr6:124662746:124662747:+_ENSMUSG00000004264_ENSMUST00000004375|mus_mus|motif|central (ssRNA)
RNA: GGGAGUUCUACAGUCCGACGAUCUUCGGCCAGGAUCGUGUCCUGCUGCACGCCACCAAUACGAUUAAAAAAGAUGGCUCGGUGACCGCCUUCCACGGUGAACACGGAUUCGCGGACGCCGUAGGCCACCGCCCCGGCCCCCAGCAACAGAGGAUUGAGCAUCA
B8: chr14:102036314:102036315:-_ENSMUSG00000075486_ENSMUST00000100339|mus_hu|FALSE|FALSE (ssRNA)
RNA: GGGAGUUCUACAGUCCGACGAUCCUUAAGAGAUCUGCAAGUGUCUGAGCUCACAGCCAUACCCAGUUUCCACUGAAAAUCUACAAGCUGGUUGGUGACAUCGGACUUAGCAUCCAGCGGCGGCUCGCUGGACGCCUCCAUGGGCAACAGAGGAUUGAGCAUCA
B9: chr2:91389038:91389039:+_ENSMUSG00000040549_ENSMUST00000099716|mus_hu|motif|central (ssRNA)
RNA: GGGAGUUCUACAGUCCGACGAUCUAAUCCUUUCAAUUGAACCACUGCAUUGGAAUCAGUGACAAAUUUUUUGAUCAAUCCGGAAAAUUUGGACCACUCUGGGCUCUUUUCAUCCUUUAUUUUCUGGAAGAUCUUCAGGGCCUCCAACAGAGGAUUGAGCAUCA
B10: chr11:77336104:77336105:-_ENSG00000074201_ENST00000525064|hu_mus|hu_hu_hu_mus_False|8_18 (ssRNA)
RNA: GGGAGUUCUACAGUCCGACGAUCCUCACACAUUGCUGUGAACAUCGCCUCCAAUGCUGACUUAUCACUGGGCACAAAUCGAAAUUCAGAAAUGGGUUCAACAUCAUCAUUGUCUUCUUCCUCUUCUUCAUCAGCAAGUUCUUUCAACAGAGGAUUGAGCAUCA
B11: chr11:20626769:20626770:-_ENSMUSG00000049659_ENSMUST00000146722|mus_mus|FALSE|FALSE (ssRNA)
RNA: GGGAGUUCUACAGUCCGACGAUCGACGCAGACCUGAUGUUCUCUUUCAGUGUUCCCCGUAUCCUCAAAGCUUCCAUCCAAAGUCACUUCUUUCACACAGUUUAGUUCCUUGACUCUGGGGCCUUUGCUGUUUCCCUGAAUGGUCAACAGAGGAUUGAGCAUCA
B12: chr16:67133199:67133200:+_ENSG00000067955_ENST00000412916|hu_mus|FALSE|FALSE (ssRNA)
RNA: GGGAGUUCUACAGUCCGACGAUCUAUUCUAGGUUUAUAGCUGGAAAAAAUAACUGCAAACACAUCUUCAUUUGUAAAAUGGUGCAGAAUACAAAAACACGAAAUGAUGUAGAGAAAACAAACAAAAACCAAGAACCCUUAUCUCAACAGAGGAUUGAGCAUCA
B13: chr20:32439910:32439911:+_ENSG00000101421_ENST00000217402|hu_hu|motif|central (ssRNA)
RNA: GGGAGUUCUACAGUCCGACGAUCAGGGACUGUUUCGGGUCCACUGAUUUCCAGCAAAUUCUUGUCUAGUUCCUCCUGUUCGGGUUCUUCUAAUUCCGCCAUGAGCUCAUCCUCGUCAAACUCUUCUCCAAACCCUACAGGUUUCAACAGAGGAUUGAGCAUCA
B14: chr4:56883625:56883626:-_ENSMUSG00000055296_ENSMUST00000068792|mus_mus|FALSE|FALSE (ssRNA)
RNA: GGGAGUUCUACAGUCCGACGAUCUAUAGGCGUGCGCCACCACGCCCGGGUUUAAAAUGUGUAGACCAGGCUGGCCUCGAACUCGCGAUCCUCCUGCUUCUGCCUCCUUCAGCAAAUCCUACUGGCGUGCGCCACCACAACCAGCAACAGAGGAUUGAGCAUCA
B15: 118482981_118483101_2867_CDS_ENSG00000172869_ENST00000311085|human|control|control (ssRNA)
RNA: GGGAGUUCUACAGUCCGACGAUCCAUUUCUGAAAACAGAGUCAACCUGCUGGUACUCUGGAGAUUUGCUCUGCAAGCCUGAUACUUUUGUGAAAAAGGAGAUAGGAUCUUCUCUGGAGAAGAAGAAUAAUGUUCUUCUGGCUGCAACAGAGGAUUGAGCAUCA
B16: chr17:60770872:60770873:+_ENSG00000011028_ENST00000303375|hu_hu|hu_hu_hu_mus_True|28_28 (ssRNA)
RNA: GGGAGUUCUACAGUCCGACGAUCUCUUUAAAAAAAAAAAAAAAAAGACAAACAAUAAUAGCACAUUUCGAGAAUCAAGAACUACAAUAGAGGGUCCGCUUUGAGUUGUCCAUGUUCUCGUCCUGCACUGGGACACGGGGACUGCAACAGAGGAUUGAGCAUCA
B17: chrX:131338992:131338993:-_ENSMUSG00000033436_ENSMUST00000035559|mus_mus|FALSE|FALSE (ssRNA)
RNA: GGGAGUUCUACAGUCCGACGAUCUAUCACAGAUAACAUCACUCUGAAUUAUUCAAACGUGGCAUCUGAAUAAUUCCUGUACUACACACACAAGUAGAAAAACAAUAGUGUCUCACUGUUAAUGCUUCCCGAGUGUAAAACCGACAACAGAGGAUUGAGCAUCA
B18: chr4:34758383:34758384:-_ENSMUSG00000039967_ENSMUST00000047950|mus_hu|motif|central (ssRNA)
RNA: GGGAGUUCUACAGUCCGACGAUCCUCAUCAUCUGAACCAUCAUUGUCAUUAAACACUAUAAAAUCUGUUGAAUAGAGACGGUUCUUUUUUAUAGGUCGCUGCUCCUGUUUAGCCACAGUAUUAGUCUUCUGAUUUUCAUUGGUCAACAGAGGAUUGAGCAUCA
B19: 118615098_118619259_2033_CDS_ENSG00000135090_ENST00000392533|human|control|control (ssRNA)
RNA: GGGAGUUCUACAGUCCGACGAUCCUGGAACUUCUUCUCAUCUGCUGCAGCUACCUUUGCCUCCUUUUCUAUGAUAGCCACUUGCUUCUUGGCCAGCUUCUCCAGCUCGAUGGACGAGUUGUUGGCAUGCGUCUCCACCUCCUUCAACAGAGGAUUGAGCAUCA
B20: chr8:27055589:27055590:-_ENSMUSG00000037260_ENSMUST00000037609|mus_hu|FALSE|FALSE (ssRNA)
RNA: GGGAGUUCUACAGUCCGACGAUCUUCCCUUUAACAAAGGCUGCUUCAGUCCUCCCUGCAGGCCUACUAGAGUCUUCCAGCAGCACAUCUCAGUGGGAGCCAUCAGAUUUUCCAAAAAAUCUUCUUUCUAUAGAGGAUGUAGGCCAACAGAGGAUUGAGCAUCA
B21: chr1:29344887:29344888:+_ENSG00000159023_ENST00000356093|perfect_dup|FALSE|FALSE (ssRNA)
RNA: GGGAGUUCUACAGUCCGACGAUCUUCCAUGACCUUUUCUUCAAGUUCCUUGGUCUGAUUUGGAGCCAGUUUAAAAUCACUAACAUAAUCCAUGCCGUGCAGUUCUGGGUCAUAGUCUCCCAGCUCAGACUGGAUCGUGUAAGACAACAGAGGAUUGAGCAUCA
B22: chr1:182792627:182792628:+_ENSMUSG00000038806_ENSMUST00000038091|mus_mus|FALSE|FALSE (ssRNA)
RNA: GGGAGUUCUACAGUCCGACGAUCAGAGUGUGUACCAGAGGCCGAGCUCCGAGGACUGCCAGGUCGGUCGGCUGCCACCUCUACAGCAUCAAUGCCGUCUUCCCGAGCACAGCAGCUCUGCUCCGAAGUCCCAGGAGCAUCCUCCAACAGAGGAUUGAGCAUCA

The binders below were run against T1, UNK ZnF1-3 (assay: nsRBNS (natural sequence RNA bind-n-seq); RBNS binding buffer (assumed for nsRBNS): 25 mM Tris pH 7.5, 150 mM KCl, 3 mM MgCl2, 0.01% Triton X-100, 500 ug/ml BSA, 20 U/ml SUPERase-In, 4 C; UNK is unkempt and MSI1 is Musashi-1; names of the RNAs are library labels; protein concentration not given here; high values mean tight binding).
B1 gave a binding signal of 1.71 enrichment R.
Work on B2 yielded a binding signal of 0.68 enrichment R.
B3 was tested, and the binding signal was 0.981 enrichment R.
With B4 the binding signal was 0.874 enrichment R.
Work on B5 yielded a binding signal of 1.48 enrichment R.
B6 was tested, and the binding signal was 0.892 enrichment R.
In the case of B7, the binding signal is reported as 0.701 enrichment R.
In the case of B8, the binding signal is reported as 1.05 enrichment R.
For B9, the binding signal was 0.767 enrichment R.
B10 was tested, and the binding signal was 1.16 enrichment R.
Work on B11 yielded a binding signal of 0.53 enrichment R.
Work on B12 yielded a binding signal of 1.58 enrichment R.
For B13, the binding signal was 0.384 enrichment R.
Binder B14 has a binding signal of 0.972 enrichment R.
With B15 the binding signal was 0.885 enrichment R.
B16 was tested, and the binding signal was 1.99 enrichment R.
In the case of B17, the binding signal is reported as 0.715 enrichment R.
With B18 the binding signal was 0.725 enrichment R.
Binder B19 has a binding signal of 0.519 enrichment R.
In the case of B20, the binding signal is reported as 1.28 enrichment R.
In the case of B21, the binding signal is reported as 0.621 enrichment R.
B22 showed a binding signal of 0.834 enrichment R.
